Assay results from PubChem BioAssay AID1963576 (National Center for Advancing Translational Sciences (NCATS), 2024).
Among all 46,000 compounds or so, about 60 (0.1%) were called active. Roughly 3% stayed inconclusive and do not appear here. The call rests on the fitted dose curve; in most records, active means well fitted inhibition curve with a large enough effect; inconclusive means small, poorly fitted or top-dose-only effect; inactive means no such curve, though single readings can be large or run the other way. Some of the results follow.

Assay: Primary qHTS assay for Inhibitors of ovarian cancer metastasis using an organotypic tumor microenvironment (TME) model. Further: nearly all actives have a fitted effect of over 65% in size.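 On activity change, negative = inhibition: plate controls were DMSO wells for no effect and tomatine positive control wells for full effect.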
Details: SKOV3ip1-GFP adhesion/invasion on 3D omental model, fluorescence; series mostly up to 45.8 µM; activity change, negative = inhibition: at the top concentration
Outline: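 qHTS, 4-pt dose (0.36-46 umol/L); SKOV3ip1-GFP, 1,200 cells/well, no FBS; primary omental fibroblast/mesothelial co-culture 48 h pre-grown; 2 h RT + 16 h 37 C; PBS wash, 4% PFA; GFP count 488/509 nm.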

outcome, inactive:
CCOc1ccc(NC(=O)CC2C(=O)N(c3ccc(Cl)cc3)C(=O)N2Cc2cccs2)cc1 (centres undefined), Cc1oc(-c2ccc(Cl)cc2)nc1CSc1nc2ncccc2[nH]1, CCc1ccccc1Nc1nn2c(=O)c3ccc(C(=O)NCCCOC(C)C)cc3nc2s1, CC(=O)c1cccc(NC(=O)CC(c2ccc(C)cc2)N2Cc3ccccc3C2=O)c1 (centres undefined), COc1cc2ncc(C(=O)c3ccc(C)cc3)c(N3CCCCC3)c2cc1OC, COc1cccc(CNC(=O)Cc2c(C)c3ccc(OC)c(C)c3oc2=O)c1, Cc1ccc(S(=O)(=O)c2nnn3c2nc(NCCc2ccccc2)c2sccc23)cc1, Cc1ccc(CNC(=O)c2c[nH]n3c(=O)c(Cc4ccc(Cl)cc4)c(C)nc23)cc1, Cn1c(=O)oc2cc(S(=O)(=O)N3CCCC(C(=O)NCCc4ccccc4)C3)ccc21 (centres undefined), O=C(NCCc1ccccc1)c1nn(-c2ccc(F)cc2)nc1CO, COC(=O)c1ccccc1NC(=O)CSc1nc(=O)cc(N)n1-c1ccccc1, CCOc1ccc(NC(=O)CSc2nnc(-c3ccc(OCC)cc3)o2)cc1, Cc1ccc(Cl)cc1NC(=O)C1CCN(S(=O)(=O)c2cccc3nonc23)CC1, COc1cccc(Cn2c(=O)n(CCc3ccccc3)c(=O)c3c2c2cc(OC)ccc2n3C)c1, CCOc1ccc(N(CC(=O)Nc2ccccc2CC)S(=O)(=O)c2c(C)noc2C)cc1, CCn1nc(-c2ccccc2)c(-c2ccccc2)c(C(=O)Nc2ccccc2C#N)c1=O, COc1cc2[nH]c(=O)n(CCC(=O)N3CCN(c4ccc(Cl)cc4)CC3)c(=O)c2cc1OC, CCN(Cc1ccccc1)C(=O)Cn1c(=O)n(-c2cccc(C)c2)c(=O)c2c1c1cc(C)ccc1n2C

Activity change, negative = inhibition, inactive:
O=C(OCc1cc(=O)n2nc(C3CCCCC3)sc2n1)c1ccc(F)cc1 14.3%, O=C(Nc1ccc2oc(-c3ccncc3)nc2c1)c1ccccc1Cl -3.12%, COc1ccccc1Nc1cc(C(=O)NC2CCC(C)CC2)c2ccccc2n1 (centres undefined) 7.96%, CCOC(=O)c1c(C)[nH]c(C)c1S(=O)(=O)N1CCCC(C(=O)NCc2ccc(Cl)cc2)C1 (centres undefined) 24.6%, CCOCCCNC(=O)CN1C(=O)COc2ccc(S(=O)(=O)N3CCCC3)cc21 -2.46%, Cc1ccc(N2CC(NC(=O)c3ccc(S(=O)(=O)N4CCOCC4)cc3)CC2=O)cc1 (centres undefined) 9.98%, CCOC(=O)c1cnn(-c2ccc(C(=O)Nc3cccc(C(C)=O)c3)cc2)c1N -11.1%, CCn1nc(C)c(CCN(C)C(=O)Nc2cc(OC)c(OC)c(OC)c2)c1C 5.73%, O=C(CS(=O)Cc1ccco1)NCC=CCOc1cc(CN2CCCCC2)ccn1 (centres undefined) 2.89%, COc1ccccc1CN1C(=O)CN(C2CCCCCC2)C(=O)C1c1ccc(F)cc1 (centres undefined) -35.2%, Cc1c(Cl)cccc1NC(=O)C1CCN(c2ncnc3c2nc2n3CCCCC2)CC1 -6.23%, Cc1ccc(CNC(=O)CCn2cnc3ccccc3c2=O)cc1 -1.13%, Cc1ccc2nc(Nc3ccc(C)c(F)c3)c3nncn3c2c1 -18.3%, CCN(C(=O)Nc1cn(CC(C)C)c(=O)c2ccccc12)c1cc(C)ccc1C -5.26%, COc1cc(C)cc2oc(=O)c(CC(=O)NCCc3ccc(Cl)cc3)c(C)c12 -6.81%, O=C(CCn1c(=O)c2cccn2c2cccnc21)N1CCN(c2ccccc2F)CC1 -6.37%, Fc1cccc(-c2nnn3c2nc(NCCc2ccccc2)c2ccccc23)c1 -9.09%, O=C(COCc1cc(-c2cccs2)on1)N1CCN(c2cccc(Cl)c2)CC1 3.4%, COc1ccc2cc(C(=O)NCc3ccc4c(c3)CCN4C(=O)c3ccc(F)cc3)[nH]c2c1 -1.1%, COc1ccc(CC(=O)NCCc2csc(-c3cccc(C)c3)n2)cc1 8.82%, CC(C)OCCCNC(=O)Cn1ccc2cc(S(=O)(=O)N3CCCCCC3)ccc21 -10.8%, CC(C)CNC(=O)N1[C@H](c2cccs2)[C@@H](C)C(=O)[C@@H](C)[C@@H]1c1cccs1 -6.29%, Cc1nc(-c2ccccc2)sc1-c1ccc(SCC(=O)NCc2ccc(Cl)cc2)nn1 8.24%, Cc1oc(-c2ccccc2Cl)nc1Cn1c(SCc2cccc(F)c2)nc2cccnc21 4.1%, Cc1ccc(-n2c(=O)[nH]c3cc(C(=O)NCc4ccccc4)ccc3c2=O)cc1 3.24%, Cc1ccc(CCNS(=O)(=O)c2ccc3c(c2)CC(C)N3C(=O)C2CCC2)cc1 (centres undefined) -1.03%, NCCCCNCCCN -0.101%, COCCCNC(=O)Cn1c(=O)nc(-c2ccccc2)c2ccccc21 -3.46%, Nc1ncn([C@H]2C[C@H](O)[C@@H](CO)O2)c(=O)n1 7.02%, Cc1ccc(-n2nc3c(=O)n(CC(=O)NCCC(C)C)nc(C)c3c2C)cc1 0.175%, CC(CNC(=O)c1nnc(Cc2ccc(F)cc2)o1)c1ccccc1 (centres undefined) 1.23%, COc1cccc(NC(=O)CSc2nccn2C2CCCC2)c1 -34.7%, O=C(Cn1cc(S(=O)(=O)Cc2cccc(Cl)c2)c2ccccc21)Nc1ccccc1Cl -0.552%, Cc1cccn2c(=O)c(C(=O)NCCc3ccccc3)cnc12 0.646%, CCOc1ccc(CCNC(=O)c2cc(C)nc3c2c(C)nn3-c2cccc(F)c2)cc1 -19.7%, CCCCC12CN3CC(C)(CN(C1)C3c1ccc(O)c(OC)c1)C2=O (centres undefined) -1.19%, COc1ccc(Cn2cc(C(=O)c3ccc(C)c(C)c3)c(=O)c3ccccc32)cc1 4.7%, Cc1ccc(F)cc1NC(=O)Cn1c(C)cc(C)c(C#N)c1=O -9.8%, COc1ccc(C2=C(N3CCN(c4cccc(C)c4)C(C)C3)c3ccccc3C2=O)cc1 (centres undefined) -2.12%, O=C(NC1CCCC1)c1ccc2c(c1)N(Cc1ccccc1)C(=O)c1ccccc1S2 -3.78%, CC1CCN(c2nc3ccc(C(=O)NCc4ccccc4Cl)cc3s2)CC1 2.46%, C[C@H](O)[C@@H]1C(=O)N2C(C(=O)O)=C(S[C@@H]3CN[C@H](CNS(N)(=O)=O)C3)[C@@H](C)[C@@H]12 18.9%, COc1ccc(N2CCN(Cc3nc4c(c(=O)[nH]c(=O)n4C)n3CC(C)C)CC2)cc1 1.19%, O=C(NCc1cccc(Br)c1)c1ccc(NC(=O)N2CCCCc3ccccc32)cc1 6.05%, CCc1ccc(S(=O)(=O)c2cn(Cc3ccccc3F)c3cc(OC)c(OC)cc3c2=O)cc1 10.9%, Cc1ccccc1C(=O)Nc1c(C)nc2ccccn2c1=O -6.75%, CC(=O)c1ccc(NS(=O)(=O)c2ccc3[nH]c4c(c3c2)CCCC4)cc1 -1.44%, Cc1ccc(CCNC(=O)c2c3c(nc4ccccc24)C(=O)N(C2CCCCC2)C3)cc1 -14.9%, Cc1cccc(NC(=O)CS(=O)(=O)c2cccc3nsnc23)c1 -1.08%, O=C(Cc1ccc(-c2ccc(OCCN3CCOCC3)cc2)cn1)NCc1ccccc1 -26%, COc1ccc(NC(=O)CSc2nnc(NC(=O)NC3CCCCC3)s2)cc1OC -15.4%, Cc1cccc(CNC(=O)c2ccc3nc(Cc4ccccc4)oc3c2)c1 -19%, CCOc1ccc(C2c3[nH]c4ccccc4c3CCN2C(=O)CSCc2ccc(F)cc2)cc1 (centres undefined) 4.41%, Cc1ccc(CNC(=O)c2c(-c3ccccc3Cl)noc2C)o1 15.9%, Cc1coc2cc3oc(=O)c(CC(=O)NCc4cccc(Cl)c4)c(C)c3cc12 -25.5%, C[C@@H]1O[C@@H](O[C@H]2CC[C@@]3(C)[C@H](CC[C@@H]4[C@H]3C[C@@H](O)[C@]3(C)[C@@H](C5=CC(=O)OC5)CC[C@]43O)C2)C[C@H](O)[C@@H]1O[C@H]1C[C@H](O)[C@H](O[C@H]2C[C@H](O)[C@@H](O)[C@@H](C)O2)[C@H](C)O1 (stereo in doubt) -16% [at 92.2 µM], Cc1ccc(NC(=O)Cn2c(=O)n(Cc3nc(-c4ccccc4)no3)c(=O)c3ccccc32)cc1C 2.84%, Cc1cccc(NC(=O)COc2ccc(-c3nn(C)c(=O)c4ccccc34)cc2)c1 9.65%, CCOc1ccc(CCNC(=O)CCCc2nnc3n(CC)c(=O)c4sccc4n23)cc1OCC -0.637%, COc1cc(OC)c(NC(=O)CN2CCCN(Cc3ccccc3C)S2(=O)=O)cc1Cl 3.29%, COc1cc(NC(=O)C(Cc2ccccc2)NS(=O)(=O)c2cccc3nsnc23)cc(OC)c1 (centres undefined) -2.19%, Cc1cccc(NC(=O)CSc2nc3ccccc3nc2N2CCCCC2)c1C -6.65%, COc1ccc(NC(=O)c2c(NC(=O)c3ccncc3)sc3c2CCC(C(C)(C)C)C3)cc1 (centres undefined) -6.74%, COc1ccc(C(=O)NNc2ncnc3c2cnn3-c2ccc(C)c(Cl)c2)cc1 3.95%, CCn1c(-c2nonc2N)nc2cncc(CNC3CCNCC3)c21 -21.2%, CCCCNc1nc(Oc2ccc(=O)n(C)n2)nc(N2CCOCC2)n1 5.57%, CC(=O)c1cccc(NC(=O)CCc2c(C)nc3c(c(C)nn3-c3ccccc3)c2C)c1 -6.93%, Cc1cc(C)cc(NC(=O)c2cc(S(=O)(=O)N3CCC(C)CC3)cn2C)c1 -19.3%, O=C(Cn1ccn(-c2ccc(F)c(F)c2)c(=O)c1=O)NCCc1ccccc1 -4.63%, COc1ccc(Br)cc1CNC(=O)c1ccc2c(c1)nc1n2CCC(C)C1 (centres undefined) -15.4%, COc1ccc(C(=O)c2c(N)c(-c3nc(-c4ccc(OC)cc4)cs3)c3ccccn23)cc1 -0.637%, Cc1cc(C)c2c(=O)cc(C(=O)Nc3c(C)n(C)n(-c4ccccc4)c3=O)oc2c1 -0.745%, CCOc1ccc(-c2cc3c(=O)n(CC(=O)Nc4cc(F)ccc4C)ccn3n2)cc1 0.71%, O=C(CCC1N=C2c3ccccc3N=C(SCc3cccc(Cl)c3)N2C1=O)N1CCN(c2ccccc2)CC1 (centres undefined) -1.84%, Cc1cc(C)c(/C=C/c2onc(C)c2S(=O)(=O)N2CCC(C(=O)NCc3ccccc3Cl)CC2)c(C)c1 9.27%, Cc1ccc2oc3c(c(=O)c2c1)C(c1ccc([N+](=O)[O-])cc1)N(CCCN1CCOCC1)C3=O (centres undefined) 10.5%
